The campaign covered roughly 45,000 compounds. About 200 (0.44%) were called active. Roughly 7% stayed inconclusive and do not appear here. Calls come from the whole dose curve; as a rule, active = well fitted activation curve with a large enough effect; inconclusive = small, poorly fitted or top-dose-only effect; inactive = no such curve, though single readings can be large or run the other way. The list shows a part of the results.
Assay: qHTS of TDP-43 Inhibitors: NCGC Sytravon Library Screen; note: 0% is about no effect; nearly all actives have a fitted effect of over 55% in size
Conditions: yeast TDP-43 toxicity rescue, BacTiter-Glo growth, 24 h; series mostly up to 46.1 µM; growth rescue (activation): at the top concentration
How it was run: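 TDP-43-expressing yeast, pregrown in raffinose, seeded at OD600 0.02 in galactose medium with compound for 24 hr at 30 deg C. Growth read by BacTiter-Glo luminescence, so rescue of toxicity appears as activation.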

SMILES | growth rescue (activation)
COc1ccc(NC(=O)COc2cccc(-n3cnnn3)c2)cc1 | inactive: -8.92%
O=C(CN(c1ccccc1)S(=O)(=O)c1ccccc1[N+](=O)[O-])N1CCCC1 | inactive: 11.9%
Cc1ccccc1OCCC(=O)OCC(=O)Nc1ccc(C(N)=O)cc1 | inactive: -41.3%
CC1CCCN(C2=NC(=O)/C(=C/c3cn(-c4ccccc4)nc3-c3cccc(S(=O)(=O)N(C)C)c3)S2)C1 (stereo not given) | inactive: 12.6%
COc1ccc(S(=O)(=O)N2CCC(C(=O)NCC3CCCO3)CC2)cc1Cl (stereo not given) | inactive: -10.4%
Cc1ccccc1NS(=O)(=O)c1ccc(C)c(NS(C)(=O)=O)c1C | inactive: 4.72%
Cc1ccc(NC(=O)COC(=O)c2sccc2C)cc1S(=O)(=O)N1CCOCC1 | inactive: -1.37%
Cn1ccnc1SCC(=O)c1ccc(Cl)cc1 | inactive: 19.4%
Cc1cnc(C(=O)OCC(=O)N2CCC(C)CC2)cn1 | inactive: 21.3%
CC/C(=N\NC(=S)NC(C)C)c1ccc(OC)c(OC)c1 | inactive: 9.91%
COc1ccc(CNC(=O)C2CCN(S(=O)(=O)c3ccc(Br)s3)CC2)cc1 | inactive: 5.68%
CC(=O)c1cc2c(cc1NC(=O)C1CN(C(C)=O)c3ccccc3O1)OCO2 (stereo not given) | inactive: 20.7%
O=C(CN(c1ccccc1)S(=O)(=O)c1ccccc1)Nc1ccccc1C(=O)NCc1ccco1 | inactive: 7.69%
O=C(CN1CCN(Cc2ccccc2)CC1)Nc1ccccc1-c1ccccc1 | inactive: 2.18%
COc1ccc(C(=O)Nc2cc3cc(Cl)ccc3oc2=O)cc1OC | inactive: 2.75%
CCN(CC(=O)Nc1ccc(OC)c(OC)c1)CC(=O)Nc1ccccc1C(F)(F)F | inactive: -4.32%
Cc1ccc(C(=O)CSc2nc3ccccc3c(=O)[nH]2)cc1C | inactive: 12.6%
COc1ccc(/C=N/NC(=O)C2c3ccccc3-c3ccccc32)cc1 | inactive: -7.93%
COc1ccc(C(CC(=O)O)n2cnnn2)cc1 (stereo not given) | inactive: -1.61%
CC1CCCCC1NC(=O)C1CCN(S(=O)(=O)c2cccc3nonc23)CC1 (stereo not given) | inactive: 21.5%
CC1CC(=O)Nc2ccccc2S1(=O)=O (stereo not given) | inactive: -34.1%
COc1ccc(-c2cn[nH]c2C)cc1OC | inactive: -4.08%
NC(N)=Nc1nc(-c2ccccc2)c2cc(F)ccc2n1 | inactive: 3.53%
CCOc1cc(C2C(C#N)=C(N)Oc3n[nH]c(-c4ccncc4)c32)cc([N+](=O)[O-])c1O (stereo not given) | inactive: -4.9%
CCc1nc2ccc(C(=O)NCCCn3ccnc3)cn2c1N(C)CCC(C)C | inactive: 5.77%
Cn1ccnc1SCc1ccc(Cl)cc1Cl | inactive: 29.5%
Cc1nonc1CN(C)C(=O)CC1C(=O)NCCN1Cc1ccccc1F (stereo not given) | inactive: 8.04%
Cc1nc(SCC(=O)N2CCCC2=O)nc(C)c1C | inactive: -7.57%
COC(C(=O)Nc1ccc(S(=O)(=O)Nc2cccc3ccccc23)cc1)c1ccccc1 (stereo not given) | inactive: 8.52%
O=S(=O)(c1ccc(Cl)cc1)N1CCN(c2nc(-c3cccs3)nc3ccccc23)CC1 | inactive: 13.4%

From PubChem BioAssay AID1347073 (National Center for Advancing Translational Sciences (NCATS), 2019)
